According to PubChem BioAssay AID488969 (Vanderbilt High Throughput Screening Facility, 2010):
Over roughly 110,000 compounds, “z-score” has its median near -0.1; the highest 2% begin near 2. This is one part of the list. Activity calls are given as the source filed them.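 The calls were made as follows: active = z-score in the third read window above 3 or below -3; inactive = the rest.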

Each compound was assayed against Metabotropic glutamate receptor 8 (Rattus norvegicus) (UniProt P70579) (assay: mGluR8 Gi/Go-coupled signaling modulation – cell-based, rat, thallium flux, HTS, primary screen (AID 488969)). Conditions: HEK293 rat mGluR8, GIRK (G protein-gated inwardly rectifying potassium channel) thallium flux, FluoZin2; at 10 µM; stronger effect = higher value; submaximal glutamate (EC20) added with thallium.
Chain of UniProt P70579 (P70579 whole entry, looked up): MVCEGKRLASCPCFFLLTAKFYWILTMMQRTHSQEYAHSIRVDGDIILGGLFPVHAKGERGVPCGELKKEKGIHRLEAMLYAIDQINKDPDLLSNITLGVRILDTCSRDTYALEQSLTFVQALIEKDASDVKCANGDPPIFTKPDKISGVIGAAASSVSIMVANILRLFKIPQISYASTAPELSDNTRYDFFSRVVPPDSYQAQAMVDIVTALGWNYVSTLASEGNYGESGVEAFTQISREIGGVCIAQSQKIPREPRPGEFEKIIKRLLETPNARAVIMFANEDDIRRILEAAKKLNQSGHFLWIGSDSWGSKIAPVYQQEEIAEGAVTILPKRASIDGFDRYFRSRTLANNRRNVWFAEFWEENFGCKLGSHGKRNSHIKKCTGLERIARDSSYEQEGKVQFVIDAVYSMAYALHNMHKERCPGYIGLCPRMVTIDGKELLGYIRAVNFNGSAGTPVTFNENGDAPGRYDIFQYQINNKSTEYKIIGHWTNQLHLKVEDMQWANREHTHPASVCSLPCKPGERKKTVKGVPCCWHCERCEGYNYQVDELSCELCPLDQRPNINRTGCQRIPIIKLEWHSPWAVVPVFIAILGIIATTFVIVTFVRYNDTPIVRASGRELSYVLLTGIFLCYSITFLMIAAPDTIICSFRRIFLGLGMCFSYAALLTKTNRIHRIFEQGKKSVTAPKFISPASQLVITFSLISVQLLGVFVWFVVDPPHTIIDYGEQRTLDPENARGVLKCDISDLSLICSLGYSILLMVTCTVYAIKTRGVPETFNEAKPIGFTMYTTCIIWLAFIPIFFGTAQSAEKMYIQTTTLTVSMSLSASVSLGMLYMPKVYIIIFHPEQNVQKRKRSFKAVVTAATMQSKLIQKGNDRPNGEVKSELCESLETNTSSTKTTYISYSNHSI

Structure (SMILES) | z-score
O=S(=O)(c1cccs1)n1nnc2ccccc21 | 0.347
Cc1nc(NC(=O)C23CCC(C)(C(=O)O2)C3(C)C)sc1C (centres undefined) | 0.276
COCC(O)CSc1nc(C)[nH]c1[N+](=O)[O-] (centres undefined) | -0.437
Cc1cc(OC(=O)c2cc(Cl)nc3ccccc23)ccc1Cl | -0.0067
CCOc1ccc(-c2cc(CCCC(=O)NCCc3ccccc3)no2)cc1 | 0.0401
O=[N+]([O-])c1ccc(C2CNC(c3ccccc3)O2)cc1 (centres undefined) | 0.872
Cc1nc(SCc2ccccc2C)n[nH]1 | 0.561
CCCNC(=O)C(Cc1ccccc1)NS(=O)(=O)c1ccc2c(c1)CCC(=O)N2 (centres undefined) | 0.179
Cc1ccc(N2CC3=C(C2=O)C(c2ccccc2)NC(=O)N3C)cc1 (centres undefined) | -0.193
COc1ccc(-c2nc(CS(=O)CC(=O)NCc3ccco3)c(C)o2)cc1 (centres undefined) | 0.179
CCOc1ccc(NC(=O)N2CCN(c3nc4ccccc4s3)CC2)cc1 | -0.168
Cc1c(NC(=O)CC2CC(C)OC2=O)c(=O)n(-c2ccccc2)n1C (centres undefined) | 0.578
COc1ccc(Nc2cccc(Cl)c2)c(C(=O)O)c1 | -0.43
COc1ccccc1NC(=O)N1CCCC1C(=O)NC1CCCCC1 (centres undefined) | 0.0901
Cc1ccc(-n2c(SCC(=O)Nc3ccc4c(c3)OCO4)nnc2-c2ccoc2C)cc1 | -0.214
O=c1cc2c(nn1Cc1ccccc1Cl)-c1ccccc1CC2 | 0.215
CCN(CCC#N)c1ccc(/C=N/Nc2nc(C)cc(=O)[nH]2)c(C)c1 | -0.498
O=C(CCCOc1ccc(Cl)cc1Cl)N/N=C\C1CCCCC1 | -0.118
O=C(CSc1nnc(COc2ccccc2Cl)o1)NC(=O)NC1CCCC1 | -0.637
CCC(=O)c1c[nH]c(C(=O)NCCc2ccccn2)c1 | -0.0392
CCCCS(=O)(=O)c1sc2nc3c(cc2c1N)CCCC3 | -0.167
Cc1nc(NC(=O)CN2CCOCC2)sc1-c1ccccc1 | 0.186

Structure (SMILES) | z-score
CC12COC3(C(=O)Nc4ccc([N+](=O)[O-])cc4)CC1CCC32C (centres undefined) | -0.307
COc1cc(OC)cc(C(=O)NCC(=O)OCC(=O)c2ccc3c(c2)-c2ccccc2C3)c1 | 0.13
Cn1c(SCc2ccc(Cl)cc2)nc(C(F)(F)F)cc1=O | -0.114
CCC(=O)NC(=S)Nc1ccc(NC(=O)COc2ccc(Cl)cc2Cl)cc1 | -0.124
COc1cccc(C2C3=C(CC(C)(C)CC3=O)Nc3cc4c(cc32)OCO4)c1 (centres undefined) | 2.12
Cc1nn(-c2ccccc2)c(C)c1/C=N/NC(=O)c1cc(C23CC4CC(CC(C4)C2)C3)[nH]n1 | -0.0227
O=C(Cn1c(=O)n(-c2ccc(F)cc2)c(=O)c2sccc21)N1CCCC1 | -0.657
Cc1cccc(OCCC(=O)NCC(c2ccco2)N2CCCCC2)c1 (centres undefined) | 0.65
CCOc1ccc(CSC2=NCCN2)cc1[N+](=O)[O-] | -0.766
CCN(CC)c1nc2n(c(=O)n1)CCO2 | 0.0948
CC1=NN(c2ccc(C)cc2C)C(=O)C1C(c1cccc(O)c1)C1C(=O)N(c2ccc(C)cc2C)N=C1C (centres undefined) | -0.151
CC(C)OC(=O)c1cccc(NC(=O)c2ccccc2)c1 | -0.57
O=C(NCCCn1ccnc1)C(Cc1ccc([N+](=O)[O-])cc1)N1C(=O)c2ccccc2C1=O (centres undefined) | 2.67
Cc1cccc2cc(/C=N/NC(=O)c3ccccc3O)c(Cl)nc12 | 0.0387
O=C(CSc1nc(C2CC2)nc2ccccc12)N1c2ccccc2Sc2ccc(C(F)(F)F)cc21 | 0.00774
CCC(C)[C@H](NC(=O)NCc1ccccc1Cl)C(=O)OC (some centres undefined) | 0.783
Cn1c2c(c(=O)n(C)c1=O)C(C(F)(F)F)(C(F)(F)F)N=C(c1ccccc1Cl)N2 | -0.119
CCOc1ccc(N=C2NC(=O)C(CC(=O)O)S2)cc1 (centres undefined) | 0.106
CN(C)S(=O)(=O)c1cccc(NC(=O)COC(=O)c2ccc(Br)o2)c1 | 0.425
CCOC(=O)c1ccccc1OCc1cc(/C=N/n2cncn2)ccc1OC | -0.468
CC(C)(C)c1ccc(OCC(O)CN(CCO)CC(O)Cn2ccc3ccccc32)cc1 (centres undefined) | -0.0836
CCCOc1ccc(Cn2c(=O)oc3ccc(C)cc32)cc1OC | -0.095

Structure (SMILES) | z-score
COc1ccc(CC(=O)Nc2ccc(S(=O)(=O)NC(C)C)cc2)cc1 | -0.127
CCC1CC2CC(NC(C)=O)C1C2 (centres undefined) | -0.383
O=C(Nc1cccc(Oc2ccc3c(c2)C(=O)NC3=O)c1)c1ccco1 | 0.659
CCOC(=O)c1ccc(CNS(=O)(=O)c2c(C)ccc3nsnc23)o1 | 0.587
O=C1CC(Sc2ncn[nH]2)C(=O)N1c1ccccc1 (centres undefined) | 0.104
O=c1nc(-c2ccccc2)cc(C(F)(F)F)[nH]1 | -0.557
CCCCN(CCCC)S(=O)(=O)c1ccc(N2CCCC2=O)c([N+](=O)[O-])c1 | -0.188
CC(c1ccccc1)N1CC(C(=O)N2CCN(c3ccc(F)cc3)CC2)CC1=O (centres undefined) | -0.22
CCCNC(=O)N1CCC(C(=O)c2ccc(Cl)cc2)CC1 | -0.803
O=C(CSc1ccc(-c2ccc(Cl)cc2)nn1)N1CCCc2ccccc21 | -0.395
Cc1cc(C(=O)CNCc2ccco2)c(C)n1-c1ccc(F)cc1 | -0.127
COc1ccc(-c2nn(CC(=O)N(C)C)c(=O)c3ccccc23)cc1 | 0.38
COc1ccc2c(CC(=O)OCC(=O)c3ccccc3OC)coc2c1 | -0.227
O=C(CNC(=O)C12CC3CC(CC(C3)C1)C2)N1CCN(S(=O)(=O)/C=C/c2ccccc2)CC1 | -0.259
Cc1cc(C)c(OCCNC(=O)c2ccccc2Sc2ccccc2C#N)c(C)c1 | -0.159
Cc1nc(-c2cccc(S(=O)(=O)N3CCCC(C)C3)c2)cs1 (centres undefined) | -0.168
N#Cc1ccc(OCC(=O)NCCc2ccccn2)cc1 | -0.26
CCCOc1ccc(C(=O)NC(=S)Nc2nc3ccccc3s2)cc1 | 0.254
Cc1cccc(C)c1NC(=S)NN(Cc1ccccc1)c1ccccc1 | -0.102
O=C(COC(=O)CCc1nc2ccccc2s1)Nc1cccc(S(=O)(=O)N2CCOCC2)c1 | 1.66
CSc1ccc(Cl)c(C(=O)NCc2ccco2)c1 | -0.107
CCSc1nc(-c2ccccc2)c(C#N)c(=O)[nH]1 | active: -3.09

Structure (SMILES) | z-score
Cn1c(-c2ccc3c(c2)OCO3)cnc1NCc1ccc(Cl)cc1 | -1.67
COc1ccccc1CCN1C(=S)NC(C)(C)CC1(C)O (centres undefined) | 0.898
CSc1ccccc1NC(=O)CSc1nnnn1-c1ccccc1SC | -0.42
O=C(Nc1nc(-c2cccs2)cs1)c1ccc(S(=O)(=O)N2CCCCC2)cc1 | -0.0805
Cc1ccc(C(=O)NCc2occc2C(=O)O)o1 | 0.31
O=C(NCCc1ccccc1)c1c(F)c(F)c(F)c(F)c1F | -0.11
O=C(OCc1ccc([N+](=O)[O-])cc1)c1ccc(N2CCCC2)c([N+](=O)[O-])c1 | 0.344
Cc1oc(C(C)(C)C)c(CN2CCCC2)c1C(=O)O | 0.37
O=C(Cn1ncc2c(=O)oc3ccccc3c21)NC1CC1 | 0.255
Cc1nc(C)c2c(c1C(F)(F)F)-c1ccccc1C2(F)F | -0.325
Cc1ccc(Cn2nnnc2CN2CCC(NC(=O)c3ccccc3F)CC2)cc1 | 0.0907
CCOc1ccc(NC(=O)C(C)Oc2ccccc2C(=O)Nc2cccc(Cl)c2Cl)cc1 (centres undefined) | 0.00389
Cc1cc(C)cc(NC(=O)CN2CCc3ccccc3C2)c1 | -0.0879
CCOC(=O)c1ccc(NC(=O)c2cn(-c3ccccc3)nc2-c2ccncc2)cc1 | 0.0205
CCOC(=O)Cn1c(=N)n(CCOc2ccc3ccccc3c2)c2ccccc21 | 1.25
COc1cc(NC(=O)CN(C)S(=O)(=O)c2ccc(C)cc2)cc(OC)c1 | 0.473
COc1cccc(CNC(=O)C23CN(Cc4ccccc4)CC2C(c2ccc([N+](=O)[O-])cc2)=NO3)c1 (centres undefined) | -0.147
CN(c1ccc(C(=O)Nc2ccccc2C(=O)N2CCOCC2)cc1)S(C)(=O)=O | 0.153
CCOc1ccc(NC(=O)CSc2nnc(-c3ccccc3)n2N)cc1 | 0.513
CCCn1c(SCC(=O)/C(C#N)=C(\C)N)n[nH]c1=O | -0.649
COc1cccc(OCCNc2cc(N3CCCCC3)ccc2[N+](=O)[O-])c1 | -0.298
O=C(CC1(O)C(=O)Nc2ccccc21)c1ccc(-n2cccc2)cc1 (centres undefined) | -0.227

Structure (SMILES) | z-score
O=C1c2ccccc2NC(c2cccc(F)c2)N1Cc1ccco1 (centres undefined) | -1.14
CCCC(C)C(=O)Nc1ccc(NC(C)=O)cc1 (centres undefined) | -0.433
COc1ccc(N2CCN(Cc3cc(=O)oc4ccc(C)cc34)CC2)cc1 | 0.156
Cc1[nH]n(-c2ccc([N+](=O)[O-])cc2)c(=O)c1C=NCCc1c[nH]c2ccccc12 | 0.545
C=CCOC(=O)C1=C(C)NC(SCC(=O)Nc2nccs2)=C(C#N)C1c1ccc(Cl)cc1 (centres undefined) | -0.171
O=C(c1nn2cccnc2c1Cl)N1CCN(c2ccccc2)CC1 | 0.704
CCOc1cc(N2CCOCC2)c(OCC)cc1NC(=O)CSc1cccc[n+]1[O-] | -0.193
COc1ccc(-c2cn(-c3ccc(C)cc3)c(=O)n2CC(=O)Nc2cccc(F)c2)cc1 | 0.0589
CSc1ccc(CNc2ccc(Cl)cc2)cc1 | -0.0523
Cc1ccc(CNC(=O)CCn2nc(-c3ccc(Cl)cc3)ccc2=O)cc1 | 0.0696
O=C(CNC(c1ccccc1)c1ccccc1)Nc1c(F)cccc1F | 0.24
Cc1ccc2c(c1)c(N=NC(N)=S)c(O)n2Cc1ccccc1 | 2.88
N#Cc1c[nH]n2c(=O)c3c(nc12)CCCC3 | -0.482
CCN(Cc1cc2cc(C)ccc2[nH]c1=O)C(=O)c1cccc(OC)c1 | -0.184
O=C(c1ccc(COc2c(F)c(F)cc(F)c2F)o1)N1CCN(c2ccc(Cl)cc2)CC1 | -0.254
CN1CCN(S(=O)(=O)c2ccc(NC(=O)C3CCCO3)cc2)CC1 (centres undefined) | 0.199
CC(=O)N1CCN(c2ccc(NC(=O)COc3ccc(Cl)cc3Cl)cc2)CC1 | -0.128
Nc1nc(CN2CCCCC2)cs1 | 0.0391
Cc1nc(SCC(O)CCl)c([N+](=O)[O-])[nH]1 (centres undefined) | 0.302
CC1(C)CC(=O)c2cc3c(nc2C1)CC(C)(C)CC3=O | 0.0627
CCNc1nc(NCC)n2c(SC(C(=O)Nc3cc(Cl)cc(Cl)c3)c3ccccc3)nnc2n1 (centres undefined) | -0.372
